# From PubChem BioAssay AID2546 (National Center for Advancing Translational Sciences (NCATS), 2010)
# In all, about 310,000 compounds went through this assay and about 11,000 (3.5%) were called active. This list was built around the results that the source calls inconclusive (neither active nor inactive); the mix of calls is not that of the screen. The call rests on the fitted dose curve; in most records, active means well fitted inhibition curve with a large enough effect; inconclusive means small, poorly fitted or top-dose-only effect, or effect the other way; inactive means flat fitted curve, though single readings scatter. Potencies of inconclusive entries are left out as doubtful fits.
# Experiment: VP16 counterscreen qHTS for inhibitors of ROR gamma transcriptional activity;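 further: Gal4-VP16 expression switched on by copper sulfate through the metallothionein promoter; nearly all actives have a fitted effect of over 50% in size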
# Conditions: Drosophila S2 Gal4-VP16 UAS-luciferase, luminescence, 20 h; activity, negative = inhibition: at 53.6 µM (top of the series)
# On the % scale 0 is the no-effect control and ±100 the full control effect; potency means the concentration at half of the fitted maximal effect; tags describe the fitted curve by direction and shape.
SMILES,Potency,"activity, negative = inhibition"
Cc1cc2c(=O)n(Cc3ccco3)c(SCC(=O)c3ccc(Cl)s3)nc2s1,"inconclusive [inhibitor, single point]",
Cc1ccccc1NC(=S)N/N=C/c1ccc(O)cc1O,"inconclusive [inhibitor, single point]",
COC(=O)COc1ccc2occ(C(C)=O)c2c1,"inconclusive [inhibitor, single point]",
C/C(Cn1nc([N+](=O)[O-])cc1C)=N\NC(=O)COc1ccccc1[N+](=O)[O-],"inconclusive [activator, single point]",
O=C(CSC(=S)N1CCCC1)c1cc(Br)cc(Br)c1O,"inconclusive [inhibitor, single point]",
CC1Cc2ccccc2N1C(=O)C1CCN(S(=O)(=O)c2cccs2)CC1 (centres undefined),,inactive: -2.69%
CC1(C)C2CC=C(/C=N/NC(=S)NCCc3ccccc3)C1C2 (centres undefined),active: 7.08 µM,
COc1ccc(N2C(=O)CSC2c2ccc(F)cc2)cc1 (centres undefined),,inactive: -3.83%
COc1ccc(CNC(=O)c2ccc(Cn3cc(Cl)cn3)o2)cc1,,inactive: -4.18%
O=C(NC(=S)N1CCCCCC1)c1ccccc1,active: 1.78 µM,
Cc1c(Cl)cccc1NC(=S)NCCc1ccc(F)cc1,active: 3.55 µM,
COc1cc(C(=O)ONC(=O)c2ccc(OC(F)F)cc2)cc(OC)c1OC,"inconclusive [inhibitor, partial curve]",
O=C(Nc1nc2ccccc2[nH]1)c1ccc(Cl)c(S(=O)(=O)N2CCCC2)c1,active: 8.91 µM,
CCc1n[nH]c(=S)n1/N=C/c1cc(Br)c(O)c(OC)c1,,inactive: -7.15%
CCC(=O)Nc1ccc(NCc2cccs2)cc1,"inconclusive [activator, single point]",
Cc1cc(C(=O)CSc2nnc3ccccn23)c(C)n1-c1ccccc1,active: 2.82 µM,
O=C(Nc1ncc(Cc2ccccc2)s1)C1COc2ccccc2O1 (centres undefined),active: 2 µM,
CN1c2ccccc2Sc2cc(N)ccc21,"inconclusive [inhibitor, single point]",
Cc1ccc(-n2c(CCc3ccccc3)nnc2SCC(=O)NCc2ccccc2)cc1C,"inconclusive [inhibitor, single point]",
Cc1cccc(NC(=O)C2(C)CC3c4ccccc4C2c2ccccc23)c1 (centres undefined),"inconclusive [inhibitor, single point]",

SMILES,Potency,"activity, negative = inhibition"
Cn1nc(C(=O)Nc2nc3ccccc3[nH]2)ccc1=O,"inconclusive [activator, single point]",
Cn1c(=N)n(CC(=O)c2ccccc2)c2ccccc21,active: 11.2 µM,
Cc1ccc(Cn2c(=S)[nH]c3ccccc3c2=O)cc1,active: 6.31 µM,
O=C(NNC(=O)C1CC2CCC1C2)c1sc2ccccc2c1Cl (centres undefined),"inconclusive [inhibitor, single point]",
COc1ccc(CCC(=O)NCCS(=O)(=O)N2CCN(c3ccccc3OC)CC2)cc1,"inconclusive [inhibitor, single point]",
O=C(CNS(=O)(=O)c1ccc2ccccc2c1)OCc1csc(-c2ccccc2)n1,"inconclusive [inhibitor, single point]",
CCOc1ccccc1NC(=O)Nc1ccc(Cl)cc1,"inconclusive [inhibitor, single point]",
CCN=c1sc(C(=O)NCCc2ccccc2)cc(=O)n1CC,"inconclusive [inhibitor, partial curve, poor fit]",
Cc1ccc(S(=O)(=O)N2CCN(C(=O)C(C)Cn3nc(C)c(C)c3C)CC2)cc1C (centres undefined),,inactive: -18.5%
CCOC(=O)C(=O)Nc1nccs1,,inactive: 3.32%
CN1/C(=C\C=Nc2ccc3ccccc3c2)C(C)(C)c2ccccc21,active: 4.47 µM,
N#Cc1ccsc1NC(=O)CSc1ncnc2ccccc12,"inconclusive [activator, single point]",
CCn1ccnc1CN(C)Cc1cn(-c2ccc(C)cc2)nc1-c1cccc(C)c1,active: 10 µM,
Clc1ccc(CN2C3=NCCCN3c3ccccc32)cc1Cl,,inactive: 3.14%
O=C(Nc1cccc(CNCCc2c[nH]c3ccccc23)c1)c1ccccc1Cl,,inactive: 9.18%
Fc1ccc(-c2n[nH]c(=S)c3ccccc23)cc1,active: 15.8 µM,
Cc1ccc(S(=O)(=O)c2c(C)nn(C(C)(C)C)c2OC(=O)c2ccco2)cc1,"inconclusive [inhibitor, single point]",
COc1ccc(C(=O)ON=C2CCN(c3ccc([N+](=O)[O-])cc3)CC2)cc1,"inconclusive [inhibitor, single point]",
COc1ccc(Nc2oc(COc3ccc(C)cc3)nc2C#N)cc1,"inconclusive [inhibitor, partial curve]",
